The supplement of paper PMC3656093
“And” between values parts separate entries of the source, which are not always exact repeats. Equal values may be shown once. ± gives the standard deviation of the averaged measurements. The full ranking holds about 1,900 compounds; the median of “CD40L-induced NF-kB luciferase activity, plate-corrected, relative to DMSO (0) and IKK inhibitor VII (-100) controls” is about 0.032, and the lowest 2% start at about -26. The list shows a part of the results.

System: BL2-NFkB-Luc
Test: CD40L-induced NF-kB luciferase activity, plate-corrected, relative to DMSO (0) and IKK inhibitor VII (-100) controls (% normalized activity); higher = more NF-kB reporter activity (less inhibition)
Settings: 9.4 µM; stimulus: tCD40L 64 ng/ml; 4.5 h
Experimental: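 BL2 B cells with a stable NF-kB response-element luciferase reporter (BL2-NFkB-Luc), 384-well. Cells were pre-incubated with compound at 9.4 uM for 1 h at 37 C, then stimulated with 64 ng/ml trimerized CD40L for 4.5 h; luciferase was read with Steady-Glo. Signal was normalised per plate in Genedata (median DMSO neutral control = 0, median IKK inhibitor VII at 50 uM = -100) with Assay Median plate-pattern correction; duplicate plates.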

| Structure (SMILES) | CD40L-induced NF-kB luciferase activity |
| --- | --- |
| COc1ccc2c(C=O)cn(C)c2c1 | -5.51 ± 1.9 |
| COC(=O)[C@H]1[C@H]2C[C@@H]3c4[nH]c5cc(OC)ccc5c4CCN3C[C@H]2C[C@@H](OC(=O)c2ccc(N)cc2)[C@@H]1OC | -0.742 ± 0.17 |
| CC(C)CC(NC(=O)CNC(=O)C1O[C@@H]2OC(C)(C)O[C@@H]2[C@H]2OC(C)(C)O[C@@H]12)C(=O)O (some centres not stated) | 1.62 ± 3.9 |
| Cc1c(Cc2ccccc2)c(=O)oc2c(CN(C)C)c(O)c(Cl)cc12 | -6.41 ± 3.5 |
| COc1ccc(-c2cc(=O)oc3cc(OC(C)C(=O)O)ccc23)cc1 (configuration not stated) | -2.42 ± 4.5 |
| OCCN(CCO)c1nc(N2CCCCC2)c2nc(N(CCO)CCO)nc(N3CCCCC3)c2n1 | 0.567 ± 4.5 |
| CC(C)C12CN3CC(C(C)C)(CN(C1)C3c1ccccc1)C2O (configuration not stated) | -4.59 ± 1.2 |
| CCn1c(=N)c(C(=O)NC)cc2c(=O)n3cccc(C)c3nc21 | 0.825 ± 8.5 |
| CC(=O)C1=C(Nc2ccc(C)cc2)CC(C)(O)C(C(C)=O)C1c1ccco1 (configuration not stated) | -3.88 ± 0.67 |
| O=[N+]([O-])c1ccc2cn[nH]c2c1 | -4.3 ± 4.4 |
| Cc1ccc(CSCC(=O)NCCCN2CCOCC2)cc1 | -4.41 ± 6.1 |
| COc1ccc(C(=O)NC(=O)NC2(C(Cl)(Cl)Cl)OCCO2)cc1 | -0.197 ± 3.6 |
| C[C@@H]1C[C@H]2[C@@H]3CCC4=CC(=O)C=C[C@]4(C)[C@@]3(F)[C@@H](O)C[C@]2(C)[C@@]1(O)C(=O)COP(=O)(O)O | -2.27 ± 0.67 |
| O=C1N[C@@H](Cc2cnc[nH]2)C(=O)N2CCC[C@@H]12 | 5.28 ± 4.3 |
| COc1cccc(C2CCCN2Cc2nc(CCC(C)C)no2)c1 (configuration not stated) | 0.228 ± 0.79 |
| COc1ccc(N2C(=O)C3C(C2=O)C(C(=O)c2ccccc2)N2CCCC32)cc1 (configuration not stated) | -2.68 ± 1.2 |
| CCOC(=O)c1oc2cc(O)cc(C)c2c(=O)c1-c1cscn1 | 3.92 ± 3.1 |
| Nc1nc(Cl)nc2c1ncn2[C@@H]1O[C@H](CO)[C@@H](O)[C@H]1O | -4.04 ± 0.72 |
| CCCCOn1c(C)c(C(C)=O)c2c3no[n+]([O-])c3ccc21 | 4.46 ± 2.4 |

| Structure (SMILES) | CD40L-induced NF-kB luciferase activity |
| --- | --- |
| CC(C)COC(=O)C1C(=O)CC(C)(O)C(C(=O)OCC(C)C)C1c1cccnc1 (configuration not stated) | 3.96 ± 1.7 |
| NC(=O)C1CCCNC1 (configuration not stated) | 1.16 ± 1.4 |
| Cc1cc(=O)oc2c(CN(C)Cc3ccccc3)c(O)ccc12 | 1.68 ± 3.7 |
| O=C(O)c1ccc(-c2ccc(O)c(F)c2)cc1 | -1.88 ± 1.6 |
| Cn1cc(CN2CCCC(CO)(Cc3cccc(Cl)c3)C2)cn1 (configuration not stated) | 0.825 ± 1 |
| O=C1CC(c2ccc(O)cc2)Oc2cc(O)cc(O)c21 (configuration not stated) | -0.369 ± 1.6 |
| CC(=O)NS(=O)(=O)c1ccc(N)cc1 | -4.13 ± 0.52 |
| CCOc1ccc(C(=O)N2CCCC2C(=O)O)cc1 (configuration not stated) | 2.22 ± 8 |
| Cc1cn([C@H]2C=C[C@@H](CO)O2)c(=O)[nH]c1=O | -7.63 ± 3.5 |
| Cc1ccc(C=NNc2nc(C(C)(C)C)cs2)o1 | 37 ± 13 |
| c1ccc2c(CC3=NCCN3)cccc2c1 | -6.05 ± 14 |
| COc1ccc(/C=C\c2cc(OC)c(OC)cc2CC[N+](C)(C)C)cc1OC | 1.04 ± 1.8 |
| CC(=O)OCC(=O)[C@@]12OC(C)(C)O[C@@H]1C[C@H]1[C@@H]3C[C@H](F)C4=CC(=O)C=C[C@]4(C)[C@@]3(F)[C@@H](O)C[C@@]12C | -11.4 ± 5.5 |
| COc1ccc(C(=O)CC2OC(=O)c3c2ccc(OC)c3OC)cc1 (configuration not stated) | -12.7 ± 14 |
| CCN(CC)CC(=O)Nc1c(C)cccc1C | -0.96 and -1.5 |
| CC(=O)CSc1ncnc2c1cnn2-c1ccccc1 | 4.76 ± 8.4 |
| CC(C)C12CN3CC(C(C)C)(CN(C1)C31C(=O)Nc3ccccc31)C2=O (configuration not stated) | -4.82 ± 5.7 |
| CC(=O)CCc1oc2ccccc2c1-c1ccccc1 | 1.92 ± 12 |
| COc1ccc(Cc2noc(CN(C)CCN3CCc4ccccc4C3)n2)cc1OC | 0.711 ± 1 |

| Structure (SMILES) | CD40L-induced NF-kB luciferase activity |
| --- | --- |
| NC(N)=NC(=O)c1nc(Cl)c(N)nc1N | 1.4 ± 3.5 |
| CCOC(=O)COc1ccc2c(=O)c(-c3ccccc3)coc2c1 | -3.83 ± 3 |
| Cc1cccc(C)c1NS(=O)(=O)c1ccc(NC(=O)c2ccc(Cl)c([N+](=O)[O-])c2)cc1 | -4.25 ± 4 |
| COC(=O)c1cc(=O)c2ccc(OC)cc2o1 | 5.82 ± 2.6 |
| CCc1ccc(/C=C2\SC(=S)N(CCC(=O)N3CCN(C)CC3)C2=O)cc1 | 4.79 ± 10 |
| O=S(=O)(NCCCCCNS(=O)(=O)c1ccccc1)c1ccccc1 | -7.09 ± 9.8 |
| CC12CN3CC(C)(CN(C1)C3c1ccc(Br)cc1O)C2 (configuration not stated) | -7.16 ± 3.5 |
| CCOC(=O)/C=C1\NC(C)(C)Cc2cc(OC)c(OC)cc21 | 0.283 ± 0.81 |
| CC(C)C12CN3CC(C(C)C)(CN(C1)C3c1ccccc1O)C2=O (configuration not stated) | -2.808 ± 0.011 |
| NS(=O)(=O)c1cc2c(cc1C(F)(F)F)NCNS2(=O)=O | 1.77 ± 0.71 |
| O=C(NC(=S)N1CCCCC1)c1cccnc1 | -3.04 ± 2.8 |
| CC(O)Cn1cnc2c1c(=O)n(C)c(=O)n2C (configuration not stated) | 0.9 ± 3.9 |
| COc1cc(CNCCc2ccccc2F)ccc1OCC(=O)N1CCCCC1 | -0.135 ± 0.12 |
| Cn1c(=O)[nH]c(=O)c2c1nc(Br)n2CCCO | 3.58 ± 0.86 |
| N/C(=N\OC(=O)c1ccc(Br)o1)c1ccccn1 | 13.5 ± 3.3 |
| COc1cccc(OC2OC3COC(C)(C)OC3C(O)C2NC(C)=O)c1 (configuration not stated) | -2.18 ± 2.7 |
| O=C(Nc1cccc(Oc2c(F)c(F)c(F)c(F)c2F)c1)N1C[C@@H]2C[C@@H](C1)c1cccc(=O)n1C2 | -0.339 ± 1.9 |
| COC(=O)c1ccc(=O)n(Cc2ccco2)c1 | -0.352 ± 2.6 |
| CC(C)C[C@H](NC(=O)[C@@H]1Cc2ccccc2CN1C(=O)OC(C)(C)C)C(=O)NCC1CCC(C(=O)O)CC1 (some centres not stated) | -1.28 ± 0.76 |
